Measurements published in paper PMC10726135.
The list shows a part of the results. At the low end of the ranking the order means little. Measured with an extract: partners may take part in the binding.

Each sequence was assayed against T1, HNF4alpha2 (COS-7 nuclear extract) (UniProt P41235) (assay: protein-binding microarray). Conditions: COS-7 nuclear extract on double-stranded Agilent 4x180k PBM; binding buffer, salt, pH and temperature not given; high values mean tight binding; double strand, one strand shown; sequences stand for … in …GCCTAGGGAGATTAGAGTATCGGTCGA.
T1 sequence: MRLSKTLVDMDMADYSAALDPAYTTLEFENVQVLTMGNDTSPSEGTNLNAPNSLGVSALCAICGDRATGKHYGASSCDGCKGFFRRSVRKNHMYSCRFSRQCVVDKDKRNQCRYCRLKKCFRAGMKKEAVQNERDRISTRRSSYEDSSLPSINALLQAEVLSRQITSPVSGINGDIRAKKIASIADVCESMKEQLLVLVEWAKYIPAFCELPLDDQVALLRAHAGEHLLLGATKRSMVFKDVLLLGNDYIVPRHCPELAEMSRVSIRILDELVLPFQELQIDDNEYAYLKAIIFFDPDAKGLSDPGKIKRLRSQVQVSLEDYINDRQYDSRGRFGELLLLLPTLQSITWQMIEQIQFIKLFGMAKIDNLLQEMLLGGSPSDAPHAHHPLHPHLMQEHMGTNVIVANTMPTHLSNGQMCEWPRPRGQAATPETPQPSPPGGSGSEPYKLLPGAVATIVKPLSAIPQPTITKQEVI

| Sequence | binding signal (log2 normalized intensity) |
| --- | --- |
| AGGTAGATGAATCCACAAAGATAAGAAAAA | -1.26 |
| TATTTGATGGTACAAATTCATGGCTGGGCT | -0.775 |
| TGACTGGGGTTAACGTCCAAAGGTAATGGT | 2.32 |
| GCATGTGGGGGCCACGCACACCTGGATCTT | -1.09 |
| CAGTCCTTCAGTCCTTCCCCCGCCAGATGT | 4.84 |
| CTCACAGCTCAATCCAACAAATAGACATTC | -0.505 |
| AGGGAAGAGATCATGGCCGATCGACTAGCG | -1.14 |
| GTCCACAGAAAGGCAAGAAGTATGACAACA | -0.936 |
| AAGGGCTTCAGAGTCGATAGTCCAAATTCT | 1.45 |
| GGTTCTGGGGTGATTACCCTTATCTTATCT | 1.5 |
| AGGCGGAACAAGGCTGAAGGGAAGCTCTGG | -1.28 |
| GAGCCAGGTGTGCTGAGGAAACTGACAGGA | -1.05 |
| ACTGATAACGCCCGCCTAACCTTGAGGAGC | -1.1 |
| TTATATGTCCACCTTATCTAATGCCCCAAA | 3.43 |
| GCCTTTGGTACAGGGCCCAGAAAAGTAGAT | -1.06 |
| ACATTCCAGTGGTCCCTGGAGATAATAGTG | 0.0399 |
| GTCCAAATAGCGCTAACTCTATATCCAAGA | -1.23 |
| TCTATGCCAAGCTCTGGGCTAGTCCCTGAG | -0.951 |
| CTGGGGCCACCCTCCTCTCTGGGTCAAAGG | 4.74 |
| GCCAGCCAGGGCCACCCATCAGTGGACTTT | 6.63 |
| GAACAGCAAGACTTTGGCCCTGCAGACTTT | 2.09 |
| TTTTCACATGGAATGTCGTGCCCTAATCTC | 0.948 |
| AGAGATGTACACAGTTCAAAGGGCAGACAG | 3.75 |
| GGGAGGGGTGGACTTTGGCTTTTCCAAAGG | 4.32 |
| GCCACCCATCAGTGGACTTTGACCTTGTTT | 10.6 |

| Sequence | binding signal (log2 normalized intensity) |
| --- | --- |
| ATGGTGACCATGTGATGTGAAGAGTGTGGA | 1.38 |
| AACTGATATGGCTCTGTTTTACAAACACAA | -1.02 |
| GTCACCACCTTTTTTGGCCTTTACCCCTTG | 4.8 |
| GACACTTCCAGCCAAACCAGGTCATGCATT | -0.383 |
| CTGGGAATGACATTTTGGACTACTTCATGT | 1.33 |
| TCTACTGCTCTATTTAGACTCAGCATGTCT | -0.799 |
| CCAGAGAAGCTGTGTAACCCTGGAGCCATA | -1.06 |
| TTGGACAAGGTAACCCCCAACATTCTTTCC | 2.79 |
| GACCCCTCCTCCCCCCGCCGCATCTACCAG | 5.54 |
| ATTGTTCCCTTGCTCCACCCTTCTATCCCC | 3.08 |
| CTGAGTGGAGGCCCAGTAAGTCCCACCCAC | 2.11 |
| TAGTATCCCTGAGTCATTTTTAGAAGCTCT | -0.614 |
| CATCAGGTGAGATAAGAAGACTCCAGGGGA | -1.16 |
| AGTGCTGCATGCAAAAAGGCTGACCTTTGA | 7.82 |
| TGCAGAAAAGGCCCCAGGGATTGCACAGGA | -1.3 |
| TTTCTCCATACCTCTTGCGTGTTATCTATG | 1.57 |
| AAGTCCCAGAAGTTCTAAGGTGGGAATGCT | -1.02 |
| AAACCAAGCTGTCCGACTGCACACCGTCCA | -1.08 |
| AAGCAGAAGCTGCACACATGTCAAAGGTCA | 6.19 |
| TGCCTTGGCCTCTGCAGACATGGACTCTGG | 4.08 |
| CTGTGCTTTGTTTACTTAACCTTTGATCAT | 7.05 |
| CCGGACGCGTCCTCGGCTCTGCGCAGGCGC | -0.728 |
| AAACCTTTGCCCAACAGGATTAGTGCTTCT | -0.149 |
| TGACTTTAAGTTGACTCCAATGCTCGTTGA | 0.968 |
| GAGTGGCCTTTAGAACCGGGGAGATACTGT | 0.581 |

| Sequence | binding signal (log2 normalized intensity) |
| --- | --- |
| ATCACATTCTAATCCTCTGGTCTTTGCCCC | 4.6 |
| CCAAACAAATGGAGAAGGTCTAAGTAAACT | -1.19 |
| GACCTTTGCCCAAGCCGTTCCCTGTACCTA | 4.52 |
| TGGCCACTGGCCCAGCGGATTAATATCCAG | -1.13 |
| ATCAGGGGTCCTGGCAGCACCTGAAGAATT | -1.17 |
| CATAGCAAGAGTGACCTTTGCTCCAGTTCC | 7.45 |
| AAATAGGCAAGACTGCCACCTACTGACCAA | -1.16 |
| ACCTGAAAAACCTCTCTCCAGGTACAAGGA | -1.05 |
| TAACCAGGGAGTGGCAGCATTGTGCTGAAA | -0.512 |
| TGGGCTGTAAAAATCTATGGCAAAGGTCTC | 1.83 |
| CCTTTGGACTGTGACCCCACCTCTCAGACA | 4.83 |
| ACCCTTCCCTAAGATTTATCCCAAATGTTT | 0.845 |
| ATGTGCCTGATGGGATGAGAGAGCCCCTGT | 1.6 |
| AACAGCGAACATGAGGAATAAACTTCTGTC | -1.09 |
| CTGGCAGGGAGGAGGGATCAAGCAGGTGAC | -0.731 |
| ACATCAGAAGTTGGACTTTGTACATTCCAA | 7.69 |
| GGGGTGGGGAGGATAGCAGCCCAGCAAAGA | -1.05 |
| TCAGGCCCAGAAACACTGAACCTTGTCCCA | 3.15 |
| TCCGAGCCATTTTGGAGCCGGTGTCAGTTT | 1.47 |
| CCTGAAAGGTAGGCAGAGAGGCTGCTCAGT | -0.927 |
| TGCCTGCAGGAGAGAGCAAAGTCCACGCAT | 6.29 |
| AGCTCTTGCTGGTCAAGCTAAGCACAACTG | -1.19 |
| GCTCTCCCATAAGAATCCTTTTCATTCTTT | 0.393 |
| GGGGCTGGCATGTCTCTGGTCAGGGAGGGC | 0.599 |
| TGTTTATCCTTCAACAATTCTATGAGTAGG | 1.3 |

| Sequence | binding signal (log2 normalized intensity) |
| --- | --- |
| TTGGGTGACTTTCTTCCTATGGGATCAAAG | 0.696 |
| ACTTGCCCTCAGTAAAGGACAAAGTCAACG | 0.532 |
| GGAGGGGAAGAAAGGAATGTGCCTGCAAGT | -1.11 |
| AGTGGGTCTAGGTTCTGGGGTGATTACCCT | 1.62 |
| TGACCTGGTACTATGACCTTTCACCTTTTA | 6.99 |
| ACTCTGGGAGCCCTGGGGTAATAAATAAAG | -0.99 |
| TTTCCAAAGAGCAGCTAGCTCCAGTTGGTT | -0.859 |
| AGCTAATCTAGAGACACTATGTGCATTCCA | -0.978 |
| TTCCCAGCTAAATAAATAACTCTAAGAAAT | -1.12 |
| CTCACGGTAACAGCCGGAGAGGCAAGTATG | -0.495 |
| ACTCAAAGGTCAAATGACAGAAGCAGGACT | 1.31 |
| AGAGTCTGACAGAACTAAGCTGTTGCGTAA | -1.12 |
| GACATGAAGGACATAAATGTGCCCAGATAA | 0.583 |
| CTTGTCTGATAAGATTCAGAACCCATTAAT | -0.701 |
| CCCATCCATTTCCCATCCCCAGAGCCCCCT | 5.39 |
| AAGACACAGAGAAAAAGAAGGTTGGGCGTT | -1.18 |
| CATCTAAGACTTTATTTGAAGAAATGGTGG | 1.59 |
| TGTCTTCCTCTCTGAAGGATTTAAATGGAA | 1.4 |
| GAATTGGAAGGCAAAGTTCAACCCTGAATG | 1.31 |
| AGGTGAATCAACGATAAGGGATGATAAGGC | -1.15 |
| ATAAACTTCCAGCCATTTTGTGAGCTCTGA | -0.884 |
| GAGGGAAAGGTCAAGAGAATTACAAACAGC | -0.939 |
| AAACGCAATTGCCCTACAGCTCCTGAGTCC | -1.19 |
| TGAGAACTGGAGCAAAGGTCACTCTTGCTA | 4.63 |
| TCCACTGATAAAGTTCTTTTGTGTGTTTAC | 2.2 |

| Sequence | binding signal (log2 normalized intensity) |
| --- | --- |
| AAAGGGTGAAATAGGAGGATTTTATTCAGG | -0.947 |
| CTTGGTATGTCTGATGAATAGAAAGAGGTC | 1.83 |
| ATCTACAGATCTGGAGCCAGCAAGGACTTT | 3.2 |
| CAAACTCACCTGGAGAAGCAGAAGCTGCAC | -1.15 |
| CCCAGCATGTTTGGGTCACAATCACAAATG | 0.895 |
| TGCAGAAAAACAGGTTCTGCAACACTTTCT | -0.768 |
| GTGCTTAGCTATTTCGTTGAATGCTGAACT | 1.6 |
| CCTTGACCTCCTGGGCCCAAGTGCTCCTCC | 0.173 |
| GCCACAACTGAGTATTTAGCTTCCTCCCTT | -0.317 |
| TATATTCATAACACTTGTATGACCTTTGTT | 5.39 |
| CACCTGTGTCAACATGGACTTTGTTGTTTG | 4.33 |
| AGCAACAGACTGCTGTGTTACTAGAGCCAA | -1.05 |
| ACAGGATGCCTGAGTAATTACTATAAATGC | -0.706 |
| GATTGGACTTTGGCCTGTGAATCCACATTC | 5.98 |
| CCAACCTGGCCTGTTTGATCTGGTTTTTGT | 1.72 |
| GAACCGTCTGCCCAGAGCGGCAGCGCCTCC | -0.917 |
| GTGTCAATTCCAAAGTTCAAGTAGAGCTTC | 3.25 |
| TAAGACTAACCTTTGACCATCCACGGATGC | 4.62 |
| TCCACAGTAAAACATACTGGTGGTTTCACA | -0.526 |
| CACCTTCAGTCACACTGTTTGCGCAAACTA | -0.824 |
| GGATAATGATAAAGAGATTGGACTTTGGCC | 8.99 |
| TACTGAAAAGTCTACCTTTGGCCTGGGGAT | 2.21 |
| TGCAAATGGATGAATTTTATCACTCCATCA | -1.07 |
| ATAGCAAACACGATTGGATGGAAGGTCCTT | 0.907 |
| TTGAACCTTGGGTCTGTAATCTCACAACTC | 1.47 |

| Sequence | binding signal (log2 normalized intensity) |
| --- | --- |
| ACACAGAGGAGCGACCCAGGCAGCCCCTTT | -1.06 |
| AGAAACAGAAAGTCCGGGGGCCAGTTCACT | -1.24 |
| TCTGTGAAGGTCAGGAGCCCCACAGAGCAA | 2.55 |
| TCTTCTTCTGGGGACTTCGGTCTTTTTTCT | 2.18 |
| GCTTGTTGGTTCAAGAGAAATGTTATCTCA | 1.23 |
| TGTGTTTCCACAAACACAGATCAGATATGA | -0.462 |
| TTTTTCTTGGGTGTATGGGTATAGGCGCGC | 1.45 |
| GTGGAATTTGTGCTTATTTCCCATCAAGGA | 0.134 |
| GAGGCAGTGGCCTGAGGCAGCCAGTGAGTG | -0.968 |
| AAGCAACACTTTCTGACCTTTAAGCACCCA | 3.37 |
| CCCGAAGGGTAGGAGAAGCTGGAAGGACAG | -1.12 |
| GAAGCAGGCAGGCAGCTTCCAGGTGACAGT | -1.1 |
| GAAGCTGTGTAACCCTGGAGCCATAAATCC | -1.09 |
| ATGGCATTTAGGGTATTTCCTAAACCAACT | -1.18 |
| CTCTGAGATGGACTCCAGTGATCTTATCGC | 1.84 |
| AGATGAGGAATCTGTTGAGAACTGGAGCAA | -1.17 |
| ACTCTCTCATTCTGATATGCACTGTCAGTT | 1.06 |
| CCTGCACCTGGAGCCCTTAGGGTCAATGGG | 2.53 |
| GTTTCTTTCCCTGGGGTCAATAGTTGTGTA | 3.31 |
| GACAAGAGTGACCTCTGGTCATTCAATGTT | 3.05 |
